The campaign covered roughly 230,000 compounds. About 3,600 (1.6%) were called active. This list was built around the results that the source calls inconclusive (neither active nor inactive); the mix of calls is not that of the screen. Calls come from the whole dose curve; as a rule, active = well fitted inhibition curve with a large enough effect (not every such curve was filed as active); inconclusive = small, poorly fitted or top-dose-only effect, or another doubt; inactive = no such curve, though single readings can be large or run the other way. Potencies beside an inconclusive call are fits to weak or partial responses and may not hold up.
Target: Lysine-specific demethylase 4E (Homo sapiens) (UniProt B2RXH2)
UniProt B2RXH2, sequence (B2RXH2 whole entry, looked up, the tested form may be a part): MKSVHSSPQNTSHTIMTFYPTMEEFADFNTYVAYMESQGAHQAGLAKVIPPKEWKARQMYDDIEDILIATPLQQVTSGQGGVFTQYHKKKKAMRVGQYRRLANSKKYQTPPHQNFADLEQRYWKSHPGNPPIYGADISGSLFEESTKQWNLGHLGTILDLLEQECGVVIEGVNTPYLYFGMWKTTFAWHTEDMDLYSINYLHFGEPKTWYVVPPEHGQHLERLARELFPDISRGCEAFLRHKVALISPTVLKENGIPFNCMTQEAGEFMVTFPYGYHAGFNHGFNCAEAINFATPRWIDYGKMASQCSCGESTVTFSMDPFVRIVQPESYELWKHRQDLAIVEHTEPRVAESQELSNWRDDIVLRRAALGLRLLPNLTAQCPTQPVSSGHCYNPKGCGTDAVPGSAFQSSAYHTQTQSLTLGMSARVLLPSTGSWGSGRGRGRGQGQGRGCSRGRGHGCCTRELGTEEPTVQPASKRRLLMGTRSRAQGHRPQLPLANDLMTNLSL
Assay: qHTS Assay for Inhibitors of Human Jumonji Domain Containing 2E (JMJD2E)
Settings: JMJD2E catalytic domain, FDH-coupled NADH fluorescence (FDH is formaldehyde dehydrogenase); series mostly up to 57.1 µM
Note: nearly all actives have a fitted effect of over 50% in size.
Potency is the fitted concentration of half-maximal effect; tags give direction and shape of the fitted curve.

**Q.** How did the Potency turn out when `COc1ccc(NCc2nnc(SCC(=O)c3ccc(OC)cc3)n2C)cc1` was run?
**A.** The Potency was “inactive”.

**Q.** How did the Potency turn out when `COC(=O)/C(=C1/Oc2cc3c(cc2S1)OCO3)C(F)(F)F` was run?
**A.** Its Potency is inconclusive: 8.91 µM [inhibitor, single point].

**Q.** How did the Potency turn out when `CCOCCCn1c(=NC(C)=O)c(C#N)cc2c(=O)n3ccccc3nc21` was run?
**A.** Its Potency is inconclusive: 25.1 µM [inhibitor, partial curve].

**Q.** With `COCCCn1c(Cc2csc(Nc3ccccc3)n2)nnc1SCC(N)=O` as the molecule, how does the Potency read?
**A.** Its Potency is “inactive”.

**Q.** With `C[C@H]1CC[C@@H]2N(C1)C[C@H]1[C@@H]3C[C@H]4[C@@H](C/C(=N\O)[C@H]5C[C@@H](O)CC[C@@]54C)[C@@H]3CC[C@H]1[C@]2(C)O` as the molecule, how does the Potency read?
**A.** The Potency was inconclusive: 8.91 µM [inhibitor, single point].

**Q.** With `COC(=O)CSc1ncnc2c1cnn2Cc1ccccc1` as the molecule, how does the Potency read?
**A.** The Potency was “inactive”.

**Q.** Which Potency does the source give for `COc1ccc(CNC(=O)CSc2nc(-c3ccccc3)cc(-c3cccs3)c2C#N)cc1` here?
**A.** The Potency was inconclusive: 20 µM [inhibitor, partial curve].

**Q.** For `Cc1cc2nc(SCCOC(=O)Nc3ccc(Cl)cc3)nc(C)c2cc1C`, which Potency is on record?
**A.** Its Potency is “inactive”.

**Q.** How did the Potency turn out when `CC1CC2(CCCCC2)Nc2ccc3ccccc3c21` (stereo not given) was run?
**A.** Its Potency is inconclusive: 8.91 µM [inhibitor, partial curve].

**Q.** `COc1cc2ccccc2cc1C(=O)NC(=S)Nc1cc(C(=O)O)ccc1C` was tested. Which Potency did it give?
**A.** Its Potency is “inactive”.

**Q.** With `N#CCCN(C(=O)CSc1nc2nc(-c3cccs3)cc(C(F)(F)F)c2c(=O)[nH]1)c1ccccc1` as the molecule, how does the Potency read?
**A.** The Potency was inconclusive: 31.6 µM [inhibitor, partial curve].

**Q.** Which Potency does the source give for `O=C(O)CCc1c(C(=O)O)[nH]c2ccccc12` here?
**A.** The Potency was inconclusive: 39.8 µM [inhibitor, single point].

**Q.** Which Potency does the source give for `CCOc1ccc2[nH]c3c(NCCc4ccc(OC)c(OC)c4)ncnc3c2c1` here?
**A.** Its Potency is inconclusive: 28.2 µM [inhibitor, partial curve].

**Q.** Which Potency does the source give for `O=C(O)C1CCN(c2nc(-c3ccccc3)nc3c2oc2ccccc23)CC1` here?
**A.** Its Potency is inconclusive: 28.2 µM [inhibitor, single point].

**Q.** Which Potency does the source give for `CCCSc1nsc(NC(=O)CC)n1` here?
**A.** The Potency was inconclusive: 35.5 µM [inhibitor, single point].

**Q.** `Cc1nc(N2CCN(c3ccccn3)CC2)c2c(C)c(C(=O)Nc3ccc(F)cc3)sc2n1` was tested. Which Potency did it give?
**A.** The Potency was inconclusive: 35.5 µM [inhibitor, single point].

**Q.** How did the Potency turn out when `Cc1ccc(NC(=O)COC(=O)CSC(=S)N2CCOCC2)cc1` was run?
**A.** The Potency was “inactive”.

**Q.** For `CCN(CC)c1ccc(/C=N/NC(=O)CNC(=O)c2ccccn2)cc1`, which Potency is on record?
**A.** The Potency was inconclusive: 28.2 µM [inhibitor, partial curve].

**Q.** How did the Potency turn out when `CCOC(=O)CNC(=O)CSc1ncnc2c1cnn2-c1ccc(OC)cc1` was run?
**A.** The Potency was inconclusive: 35.5 µM [inhibitor, single point].

**Q.** With `COc1ccc(OC)c2[nH]c(=O)c(CCNS(=O)(=O)c3ccccc3)cc12` as the molecule, how does the Potency read?
**A.** The Potency was inconclusive: 35.5 µM [inhibitor, single point].

**Q.** With `O=C(C1=C[C@H](c2ccc(C(F)(F)F)cc2)C[C@H](OCc2ccc(CO)cc2)O1)N1CCN(Cc2ccc3c(c2)OCO3)CC1` as the molecule, how does the Potency read?
**A.** Its Potency is inconclusive: 35.5 µM [inhibitor, single point].

**Q.** Which Potency does the source give for `CSc1nc2ccc(S(=O)(=O)NC3CCCCC3)cc2s1` here?
**A.** The Potency was “inactive”.

**Q.** How did the Potency turn out when `COc1ccc(CCN2C(=O)CC(NCCc3ccc(S(N)(=O)=O)cc3)C2=O)cc1OC` (stereo not given) was run?
**A.** Its Potency is “inactive”.

**Q.** With `Cn1cccc1/C=C1\SC(=S)N(NC(=O)c2ccccc2Cl)C1=O` as the molecule, how does the Potency read?
**A.** Its Potency is “inactive”.

**Q.** With `CCOC(=O)N1CCN(c2ncnc3c2[nH]c2ccc(OC)cc23)CC1` as the molecule, how does the Potency read?
**A.** The Potency was inconclusive: 31.6 µM [inhibitor, partial curve].

**Q.** Which Potency does the source give for `Cc1cc(C)c2c(c1)[C@@H]1C=CC[C@@H]1[C@H](c1ccc(S(=O)(=O)N3CCOCC3)cc1)N2` here?
**A.** The Potency was inconclusive: 0.708 µM [inhibitor, single point].

**Q.** With `COc1ccc(C2=CC(c3ccc(C)cc3)n3nnnc3N2)cc1` (stereo not given) as the molecule, how does the Potency read?
**A.** The Potency was inconclusive: 28.2 µM [inhibitor, partial curve].

**Q.** Which Potency does the source give for `CCN(C(=O)c1cnc(NC(C)C)cc1C(F)(F)F)c1ccc(Cl)cc1Cl` here?
**A.** Its Potency is inconclusive: 28.2 µM [inhibitor, partial curve].

**Q.** How did the Potency turn out when `O=C1c2[nH]nc(-c3ccccc3O)c2C(c2cccc(Cl)c2)N1CC1CCCO1` (stereo not given) was run?
**A.** The Potency was “inactive”.

**Q.** How did the Potency turn out when `C=CCNC(=O)c1c(Cl)cccc1Cl` was run?
**A.** The Potency was “inactive”.

**Q.** `CN(C)CCOCCOc1ccc(Cl)cc1Br` was tested. Which Potency did it give?
**A.** Its Potency is inconclusive: 25.1 µM [inhibitor, single point].

**Q.** How did the Potency turn out when `CC1(C)Cc2nc3sc(C(=O)NCCCO)c(N)c3cc2CO1` was run?
**A.** The Potency was “inactive”.

**Q.** `Oc1ccc2ccccc2c1C=Nc1ccc(Cl)cn1` was tested. Which Potency did it give?
**A.** The Potency was inconclusive: 35.5 µM [inhibitor, single point].

**Q.** For `O=C1Nc2ccccc2/C1=C/c1cccnc1`, which Potency is on record?
**A.** The Potency was “inactive”.

**Q.** With `Cc1ccccc1-c1noc(N)c1C#N` as the molecule, how does the Potency read?
**A.** Its Potency is “inactive”.

**Q.** For `Cc1onc(-c2ccccc2)c1C(=O)Nc1cccc2nsnc12`, which Potency is on record?
**A.** The Potency was inconclusive: 35.5 µM [inhibitor, single point].

**Q.** With `O=C(O)c1cccc(S(=O)(=O)Nc2ccccc2Cl)c1` as the molecule, how does the Potency read?
**A.** The Potency was inconclusive: 35.5 µM [inhibitor, single point].

**Q.** `CCOc1ccc(-c2nnc(Nc3ccc(OC)c(C(=O)N4CCCCC4)c3)c3ccccc23)cc1` was tested. Which Potency did it give?
**A.** Its Potency is inconclusive: 35.5 µM [inhibitor, single point].

**Q.** `O=S(=O)(c1ccccc1)N(CC(O)Cn1c2ccccc2c2ccccc21)c1ccccc1` (stereo not given) was tested. Which Potency did it give?
**A.** The Potency was inconclusive: 39.8 µM [inhibitor, single point].

**Q.** For `COCCN1CCc2[nH]c(=S)[nH]c(=O)c2C1`, which Potency is on record?
**A.** The Potency was inconclusive: 28.2 µM [inhibitor, partial curve].

**Q.** `CCCc1cc(=O)oc2c(C)c3occ(C)c3cc12` was tested. Which Potency did it give?
**A.** Its Potency is inconclusive: 39.8 µM [inhibitor, single point].

**Q.** For `Cc1ccccc1NC(=O)c1cc2c(C)nc3ccccc3c2o1`, which Potency is on record?
**A.** The Potency was inconclusive: 25.1 µM [inhibitor, partial curve].

**Q.** With `Cc1cccc(-c2cc3nc4c(c(NCc5ccco5)n3n2)CCCC4)c1` as the molecule, how does the Potency read?
**A.** Its Potency is inconclusive: 25.1 µM [inhibitor, partial curve].

**Q.** `Cc1cc(C)c2nc(Cl)c(C3NC(=O)c4ccccc4N3)cc2c1` (stereo not given) was tested. Which Potency did it give?
**A.** The Potency was inconclusive: 39.8 µM [inhibitor, single point].

**Q.** `COc1cccc(CN2CCN(S(=O)(=O)c3ccc(NC(C)=O)cc3)CC2)c1OC` was tested. Which Potency did it give?
**A.** The Potency was “inactive”.
